The full ranking holds about 2,300 sequences; the median of “median log2 fold change of GCK-ALFA target abundance (FLAG IP / Myc IP barcode read proportion)” is about 0.095, and the lowest 2% start at about -0.47. The list shows a part of the results.

The record followed here is the supplement of paper PMC12632987.

The labels stand for the following.
B1: LC3A_3_1780 (protein)
chain: MEERERELLERLRAAGKSEETLEAAREALELLREKGYEEARETFLEEAERLIDVPDELFLEFLEEVLELLKNEDLSEEELTEEIKRLARLTLSESEIIEL
B2: LC3A_28_899 (protein)
chain: GSALASAEAALAEVKAAVAAGDTSPLVVEVDAPSREEDTEKFLELLEELAEVASQRKGVTIIIDVSEDVPQENIDKIIDKAEEIEKKYPNVTVIIALPEN
B3: LC3A_13_336 (protein)
chain: MIKIEVETPEKLKKEVLKAIEENPGETIEITVTVKTEEDVDKFAEALEEVIDKAIEKGNKLNITIKGKRDNVLELSLLVGSYIAEHIDEADVTVSLEILP
B4: LC3A_3_1892 (protein)
chain: LEERVEETVERLKEAGASEETIELFLEAAELLLERGYYEALETLIDEVEELIDLPDEILLDFLEEVLEVLETEDLSEEELIERIKELARLAKNEGEIEEL
B5: LC3A_3_1516 (protein)
chain: MEELIKETLEKLKEAGKSEEVIEAVKEAMEELAEKGYEEALKVFAEEVEKLLDAPDEILLAFAEEVLELIKTSDLSEEELIKKIKELARTALAESEIIEL
B6: LC3A_3_1772 (protein)
chain: MEEKLERYRKLLEEAGFSEEVIEEALKAIKTFLEKGREEVAETFLELMLEAKDLPEDKLLVMASMALELAETSTVSEEELKKELTRTFENIAGIEELDEE
B7: LC3A_3_1699 (protein)
chain: MEELLARARAILEAQGRSPETTEAALRALRALLERGYEEAAERLLELLEESKDLSDEILLAFFEDVLRYVEEEDVDEEEAIEFIEEEYEIAKNEEEIIEL
B8: LC3A_17_540 (protein)
chain: MEELRRELAELLDRAEALVDRLAPYAPETAARARERLRRARELLEAGELREAAELLAETADEVADAVDELDWPDEDLRNLLADEFDALAIEADSILLKLE
B9: LC3A_3_1819 (protein)
chain: MEEEREETLEELREAGASEETLEAVDRAIRALLEKGYEEAARTFIELMRELKDLPSELLLELAREVLELIETSDDSEEEMKERIREIARTVRHEAEIIEL
B10: LC3A_28_975 (protein)
chain: SEIEEEIKKALAEAKAAAAAGEPTVITITVPGTATQEEVEKVIEALEEIAEILKDVPGSAIIIDLVGGVKQENRDKLAKAAEEIEKKYPNVTVIIALDEE
B11: LC3A_3_1912 (protein)
chain: AEERLERLRARAEALGHSPEVIAVLLEAARLFLEAGDEEGFELLERLAEALAGLDEGTQLAFAQDLLAELRALGDDREARRAAAKEFLRLAKNENEIIEI
B12: LC3A_3_1519 (protein)
chain: SDEIIKETLKKLKEAGKSEEVLKAAEEALNKLKEKGYEEALKVAAEEAEKMLDLPDELLLDFFNDVLELVENEDLSEEELIEEIKRLARIYKSEGEIEEL
B13: LC3A_3_1743 (protein)
chain: MEEKLEEIREELEELGFSEELIEAALEVVELLLERGFEEAVETLLEELKKLKDVPDEILIAMLEDIKQLVLTQDLNEEEVIEEIKREARVARSESEIIEL
B14: LC3A_3_1645 (protein)
chain: MEEEVEETLELLREAGASEETLEAFRRLAELLKERGFEEALKTLIEEVRKLKDLPSELLLDFLEEVLYVVETEDLNEEELIEEIKRIARVTRNESEIIEL
B15: LC3A_3_1638 (protein)
chain: MEEEIEETEKLLKEAGHSEEVIEAFRKTAELLKEKGYYNALKELIEEMKKLKDLPDDILLAMLEEVRAVVEKPDKTEEEVIKEIKEIATIARNEGEIIEL
B16: LC3A_28_1031 (protein)
chain: SALEASAAAALAEAEAQFKAGEEAVVTLDVGDVDTETARAVVTAFLKELIALSKKYGGVKVSVVINYDGDQETLNAIIDAAEAAEAADPNLTVIIAYPDR
B17: LC3A_17_590 (protein)
chain: SEEIREELEELLKELKELIKEAKKLGIPEAKEVEKLLKEAEKALKEGKLREAAELLREAADLLADALEEIEEELGSKASVLEMEANGLALRAEGILLKLE
B18: LC3A_147_468 (protein)
chain: YITEVDIDILTKNKEEEVIEAIKEIAEELKEEGYEVELEIKTEKLEDGSTYIEATITIKTETEEEAKKAADKVIERLEEMEEKLKDEILGSLISVEITKE
B19: LC3A_78_2085 (protein)
chain: MKVTIIVYSEEAKEEAEEIAAKITDADEILLGLHEELEELLEKVKDADEIEVIIVAPTLDLADELEEKVKEFFKDRKISSISEIDEETGIVTTYIYIEKK
B20: LC3A_3_1360 (protein)
chain: SDELIEETLKFLKEKGKSEETLKAVRETLEALKEKGYENAAKTFVELLKELADLPDELLLDLAEDVLKAVKEKDLSEEELIEFIKNEASVARNEAEIEEL
B21: LC3A_17_584 (protein)
chain: SEEIKKEIKELLKKLEELIKKLKEHGVPEAKEIQKLLEEAKKALEEGKLKEAAELLAEAADLAADAFAEIEDELGDEAELLEMEASGLELEAIGLLLKLE
B22: LC3A_free_8_2459 (protein)
chain: DVDALKAAISAAFDAFEDELTAKMKAAGKSQSDINYMEVLVGEAEMAVMDTAEDDPAKTLEVAKEEFAEIIAAAAEISPELAAFAKELAAKVLAAIEAAL
B23: LC3A_free_46_2330 (protein)
chain: VILEIDIDLLHEDEEKMKKAVEEIEKAAKEIAKEYGAEIEIEVEISKLEDGSYFARIKITVKAETLETAQKIRDDLIDKFEEIATKYGIAMIISYEIIEE
B24: LC3A_3_1467 (protein)
chain: EHPLLRELRAALRARGVPEEAIERIVEAARETEKYGVLEVAVEGLLEALEDPRATPEKLVEIAERLRELVEKEGLTPEEAREEFKVLFLEEVEIEEIDEE
B25: LC3A_free_39_2268 (protein)
chain: SEEELKKYKEELLKEVAPLSPEAQANVKEILKLVEGNVELVKTLLELVKKAKEEGADVEAFIAEALKLVKKMKEEGKSNEEIIKELKELANDFINLIPID
B26: LC3A_3_1703 (protein)
chain: GEELLEEAREIAEKQGLSEETIEAVLEALKALLERGYEEAAKTFIELLKEAKDLSDEILLDLAEDVKYFVETEDANEEEVIEFIKEEYQIAINDQEIEEL
B27: LC3A_3_1608 (protein)
chain: SEALVAAQLARLAAAGLSPAVLAAARKVLEALAAKGFEEAAKTLTDELLALRDLPDERLLAMLEEILAKVETEDLDEEEVIKLIKEEARVARLEAEIEEL
B28: LC3A_128_231 (protein)
chain: SELLEDLKEEAKRAKEVAEELKKIPSVKELAEETIKAAEELIKLIEEGAPLEEIKKAAKEFIEKAKKLIEALKKDPNADKVLVNDLEIEVANIEDLLEKL
B29: LC3A_3_1802 (protein)
chain: MEEKIEELLKELKEAGKSEETIEAVRKALELLKERGYEEALETFIEKLRELIDVPDELLLALAQEVLEYLETEDASEEEVKEFIEEEARLTRLESEIIEL

For this assay, the target named is MAP1LC3A, Q9H492. The assay is described as follows: median log2 fold change of GCK-ALFA target abundance (FLAG IP / Myc IP barcode read proportion) (log2 ratio); each designed protein is fused to an ALFA-tag nanobody in HEK293 cells to bring the named protein to FLAG-tagged glucokinase (GCK); Myc marks an untargeted standard; higher = target protein stabilised (more abundant). The note with it: target protein: 3xFLAG-MCP-GCK-ALFA reporter; HEK293 landing pad (RPLP). The essentials: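 Binders fused to an ALFA nanobody were recombined as a library into HEK293 landing-pad cells, which were induced with 2 μg mL^−1 doxycycline and then transfected to express a FLAG-tagged target and a Myc-tagged standard. After 48 h, circular RNA barcodes recovered by anti-FLAG and anti-Myc immunoprecipitation of lysates were reverse transcribed, amplified and sequenced. Each binder's target abundance is the median log2 ratio of FLAG to Myc barcode read proportions, from barcodes present at ≥10^−7 in both replicates, binders carrying ≥3 barcodes per replicate, a 10^−6 pseudocount and pooled replicates.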
B1: the “median log2 fold change” value came to 0.259.

In the case of B2, the “median log2 fold change” value is -0.215.

For the molecule B3, the “median log2 fold change” value is -0.122.

For B4, the “median log2 fold change” value is -0.691.

With B5, the “median log2 fold change” value came out at 0.181.

With B6, the “median log2 fold change” value amounted to 0.318.

Turning to B7, the “median log2 fold change” value came to 0.0634.

For B8, the “median log2 fold change” value is -0.365.

Turning to B9, the “median log2 fold change” value turned out to be 0.335.

As for B10, the “median log2 fold change” value stood at 0.21.

B11: the “median log2 fold change” value is 0.195.

B12: the “median log2 fold change” value was found to be 0.302.

B13: the “median log2 fold change” value came to 0.0801.

Take B14: the “median log2 fold change” value was -0.0927.

Regarding B15, the “median log2 fold change” value was determined as 0.298.

Turning to B16, the “median log2 fold change” value came out at 0.0201.

For the molecule B17, the “median log2 fold change” value came to 0.0276.

For the molecule B18, the “median log2 fold change” value was 0.3.

With B19, the “median log2 fold change” value worked out at 0.024.

For B20, the “median log2 fold change” value is 0.297.

B21: the “median log2 fold change” value was found to be 0.068.

Take B22: the “median log2 fold change” value is -0.097.

As for B23, the “median log2 fold change” value was 0.0805.

Take B24: the “median log2 fold change” value was found to be 0.176.

Take B25: the “median log2 fold change” value was determined as 0.355.

In the case of B26, the “median log2 fold change” value is -0.0778.

As for B27, the “median log2 fold change” value is 0.316.

Take B28: the “median log2 fold change” value was -0.0583.

With B29, the “median log2 fold change” value was determined as 0.0528.
